{"source": "paper PMC4336329", "about": "(PLoS ONE, 2015)", "note": "About 2,200 (0.71%) of roughly 310,000 compounds showed an effect of 50% or more. The effect is printed as a negative number. The list shows a part of the results.", "data": [{"target": "human ether-à-go-go-related gene (hERG) potassium channel (human, UniProt Q12809)", "sequence (Q12809 whole entry, looked up)": "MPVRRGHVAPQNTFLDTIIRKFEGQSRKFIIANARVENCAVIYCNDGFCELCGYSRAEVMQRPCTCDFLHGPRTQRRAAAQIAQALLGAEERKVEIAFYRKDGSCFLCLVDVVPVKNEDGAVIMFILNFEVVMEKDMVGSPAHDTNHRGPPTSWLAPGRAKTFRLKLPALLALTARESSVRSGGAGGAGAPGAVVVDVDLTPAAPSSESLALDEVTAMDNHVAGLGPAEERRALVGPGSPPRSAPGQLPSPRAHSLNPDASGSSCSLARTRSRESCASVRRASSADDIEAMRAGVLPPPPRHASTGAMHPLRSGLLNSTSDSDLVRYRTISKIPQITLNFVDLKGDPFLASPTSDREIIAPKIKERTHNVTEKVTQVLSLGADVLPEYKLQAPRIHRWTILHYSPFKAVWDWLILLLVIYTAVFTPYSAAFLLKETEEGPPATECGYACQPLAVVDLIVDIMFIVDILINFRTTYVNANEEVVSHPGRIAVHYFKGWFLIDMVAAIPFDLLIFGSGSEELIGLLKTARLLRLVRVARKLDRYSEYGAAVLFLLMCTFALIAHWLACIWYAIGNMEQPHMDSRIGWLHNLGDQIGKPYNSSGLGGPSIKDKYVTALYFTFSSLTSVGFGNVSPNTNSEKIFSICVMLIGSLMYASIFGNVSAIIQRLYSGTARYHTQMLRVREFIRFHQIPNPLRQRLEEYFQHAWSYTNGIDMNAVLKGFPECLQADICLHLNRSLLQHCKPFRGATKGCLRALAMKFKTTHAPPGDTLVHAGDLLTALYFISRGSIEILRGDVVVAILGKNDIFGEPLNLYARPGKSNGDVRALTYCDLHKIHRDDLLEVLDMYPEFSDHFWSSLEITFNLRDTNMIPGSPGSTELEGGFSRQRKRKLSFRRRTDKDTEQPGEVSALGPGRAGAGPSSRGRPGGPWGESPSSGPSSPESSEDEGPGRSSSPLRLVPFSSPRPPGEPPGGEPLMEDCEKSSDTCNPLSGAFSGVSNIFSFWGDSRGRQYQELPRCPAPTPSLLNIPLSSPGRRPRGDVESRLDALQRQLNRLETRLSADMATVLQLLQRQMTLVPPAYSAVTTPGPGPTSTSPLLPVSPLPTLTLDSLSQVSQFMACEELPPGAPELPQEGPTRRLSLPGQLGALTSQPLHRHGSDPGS", "assay": "primary screen, population patch clamp on CHO cells stably expressing hERG", "units": {"hERG current change (%, negative = inhibition) at 1uM": "%"}, "values": [{"smiles": "CC(NC(=O)c1ccco1)C(=O)N(C)Cc1ccc(C(F)(F)F)cc1", "note": "(stereo not drawn)", "hERG current change (%, negative = inhibition) at 1uM": 16}, {"smiles": "CC(C)CC(=O)Nc1cccc(-c2nc3ncccc3o2)c1", "hERG current change (%, negative = inhibition) at 1uM": 2.55}, {"smiles": "CCn1cc(/C=N/NS(=O)(=O)c2ccc(C)cc2)c(C)n1", "hERG current change (%, negative = inhibition) at 1uM": 4.79}, {"smiles": "CCO[C@H]1OC(C(=O)N2CCCCCCC2)=C[C@@H](C)[C@@H]1CCCO", "hERG current change (%, negative = inhibition) at 1uM": 12.9}, {"smiles": "CCCn1c(SCC(=O)N2CCN(S(=O)(=O)c3ccc(Cl)cc3)CC2)n[nH]c1=O", "hERG current change (%, negative = inhibition) at 1uM": 12.7}, {"smiles": "CC1CC(C)CN(C(=O)CCCNC(=O)c2ccc(Cl)cc2)C1", "note": "(stereo not drawn)", "hERG current change (%, negative = inhibition) at 1uM": -1.14}, {"smiles": "Cc1ccc(NC(=S)N2CCC(NC(=O)c3ccccc3)CC2)cc1", "hERG current change (%, negative = inhibition) at 1uM": -4.03}, {"smiles": "CCN(CC)CCn1c(NS(=O)(=O)c2ccc(Cl)cc2)nc2ccccc21.Cl", "hERG current change (%, negative = inhibition) at 1uM": -69}, {"smiles": "O=c1c2ccccc2nc(-c2ccoc2)n1-c1ccccc1", "hERG current change (%, negative = inhibition) at 1uM": 7.97}, {"smiles": "Cc1ccc(C)c2c1cc(C)c1nnc(SCC(=O)Nc3cccc(C(=O)O)c3)n12", "hERG current change (%, negative = inhibition) at 1uM": 11.2}, {"smiles": "Cc1cc(C)nc(NS(=O)(=O)c2ccc(N3C(=O)C4CCCCC4C3=O)cc2)n1", "note": "(stereo not drawn)", "hERG current change (%, negative = inhibition) at 1uM": 8.84}, {"smiles": "CCCCCCSc1nsc(N)n1", "hERG current change (%, negative = inhibition) at 1uM": 4.28}, {"smiles": "COc1ccc(S(=O)(=O)N2CCCCC2)cc1NC(=O)CSc1nccn1C", "hERG current change (%, negative = inhibition) at 1uM": 11.7}, {"smiles": "CC(Nc1ccc(Cl)cc1)C(=O)NN", "note": "(stereo not drawn)", "hERG current change (%, negative = inhibition) at 1uM": 15.6}, {"smiles": "CCCCCCNCCn1cnc2c(N)ncnc21", "hERG current change (%, negative = inhibition) at 1uM": -9.13}, {"smiles": "CNc1oc(-c2ccc(Cl)cc2)nc1C#N", "hERG current change (%, negative = inhibition) at 1uM": -1.41}, {"smiles": "CN(Cc1ccccc1F)C(=O)c1ccc(NS(=O)(=O)c2ccc3[nH]c(=O)[nH]c3c2)cc1", "hERG current change (%, negative = inhibition) at 1uM": 10.8}, {"smiles": "OC[C@H]1O[C@H](OCc2ccccc2)[C@H](O[C@@H]2OC[C@@H](O)[C@H](O)[C@H]2O)[C@@H](O)[C@@H]1O", "hERG current change (%, negative = inhibition) at 1uM": 15.9}, {"smiles": "COc1ccc(NC(=O)C23CCC(C)(C(=O)C2)C3(C)C)cc1", "note": "(stereo not drawn)", "hERG current change (%, negative = inhibition) at 1uM": 9.9}, {"smiles": "Cc1cc(C(=O)Nc2ccc(CC(=O)O)cc2)c(C)o1", "hERG current change (%, negative = inhibition) at 1uM": 14.6}, {"smiles": "CCC(c1nnc(SCC(=O)N(C)c2ccccc2)n1Cc1ccccc1)N(C)C", "note": "(stereo not drawn)", "hERG current change (%, negative = inhibition) at 1uM": 13}, {"smiles": "CCN(CC)S(=O)(=O)c1cc(C)ccc1NC(=S)Nc1cccnc1", "hERG current change (%, negative = inhibition) at 1uM": 3.41}, {"smiles": "Cc1ccc(C=C2C(=O)c3ccccc3C2=O)o1", "hERG current change (%, negative = inhibition) at 1uM": 7.94}, {"smiles": "CC(C)(C)c1csc(NC(=O)c2cccnc2)n1", "hERG current change (%, negative = inhibition) at 1uM": 19.5}, {"smiles": "COc1ccc(/C=C/C(=O)NCC(=O)N/N=C(/C)c2ccc(Cl)cc2)cc1", "hERG current change (%, negative = inhibition) at 1uM": 14.5}, {"smiles": "COc1ccc(S(=O)(=O)N(CCc2ccccc2)CC(=O)O)cc1", "hERG current change (%, negative = inhibition) at 1uM": 11}, {"smiles": "Cc1ccc(C(=O)NCCc2nnc3ccc(SCC(=O)NCc4ccc(F)cc4)nn23)cc1", "hERG current change (%, negative = inhibition) at 1uM": 7.81}, {"smiles": "O=C(Nc1cccc(F)c1)N1C2CCC1CC(O)(c1cccnc1)C2", "note": "(stereo not drawn)", "hERG current change (%, negative = inhibition) at 1uM": 19.1}, {"smiles": "CCO[C@H]1OC(C(=O)NCc2nc3ccccc3[nH]2)=C[C@@H](c2csc3ccccc23)[C@@H]1CCCO", "hERG current change (%, negative = inhibition) at 1uM": 7.88}, {"smiles": "COc1ccc(C(=O)NCc2nnc(SC)n2Cc2ccccc2)cc1", "hERG current change (%, negative = inhibition) at 1uM": 2.88}, {"smiles": "COc1ccc(OC)c(C(C(=O)NC2CCCCC2)N(Cc2ccco2)C(=O)c2ccccn2)c1", "note": "(stereo not drawn)", "hERG current change (%, negative = inhibition) at 1uM": 11}, {"smiles": "C=CCn1c(=S)[nH]c2ccccc2c1=O", "hERG current change (%, negative = inhibition) at 1uM": 9.51}, {"smiles": "Cc1c(NC(=S)NC(=O)CSc2ccc(Cl)cc2)cccc1C(=O)O", "hERG current change (%, negative = inhibition) at 1uM": 1.51}, {"smiles": "Cc1ccccc1CN1C[C@@H]2C[C@@H](c3cn[nH]c3-c3ccc(F)cc3)N3CCC[C@@]23C1=O", "hERG current change (%, negative = inhibition) at 1uM": -12.9}, {"smiles": "CNC(=O)c1cc2c(-c3ccccc3)nn(C)c2s1", "hERG current change (%, negative = inhibition) at 1uM": 10.9}, {"smiles": "CCCCNC(=O)CN1C(=O)NC(Cc2ccccc2)(Cc2ccccc2)C1=O", "hERG current change (%, negative = inhibition) at 1uM": 11}, {"smiles": "CNC(=S)NC12CC3CC(CC(C3)C1)C2", "hERG current change (%, negative = inhibition) at 1uM": 13.3}, {"smiles": "c1ccc2oc(NC3=NCN(C4CCCCC4)CN3)nc2c1", "hERG current change (%, negative = inhibition) at 1uM": 16.5}, {"smiles": "CCN1CCN(c2nc3c(C)cccn3c(=O)c2C=C(C#N)C#N)CC1", "hERG current change (%, negative = inhibition) at 1uM": -0.0089}, {"smiles": "CCC(C)[C@H](NC(=O)N1CCCC1)C(=O)O", "note": "(stereo partly drawn)", "hERG current change (%, negative = inhibition) at 1uM": 12.9}, {"smiles": "O=C1C=C(c2cc3ccccc3s2)CCC1", "hERG current change (%, negative = inhibition) at 1uM": 1.19}, {"smiles": "CCN(CC)CCCn1c(C)cc2c(c1=O)C(c1cc(OC)c(OC)cc1OC)C(C#N)=C(N)O2", "note": "(stereo not drawn)", "hERG current change (%, negative = inhibition) at 1uM": 1.91}, {"smiles": "Cc1cccc(C)c1NC(=O)CN(C)C(=O)c1ccc(-n2cncn2)c([N+](=O)[O-])c1", "hERG current change (%, negative = inhibition) at 1uM": 3.34}, {"smiles": "COc1ccc(-c2noc(N3CCC(C(=O)N(C)c4ccccc4)CC3)n2)cc1", "hERG current change (%, negative = inhibition) at 1uM": -7.9}, {"smiles": "CSCCC(NC(=O)COc1ccccc1)C(=O)N(C)CC(=O)Nc1ccc(Cl)cc1", "note": "(stereo not drawn)", "hERG current change (%, negative = inhibition) at 1uM": 5.3}]}]}
